The values that follow come from ChEMBL document CHEMBL1201862, “PubChem BioAssay data set” (2004).

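Method: 48-hour compound exposure of cells in 96-well plates, five concentrations, linear interpolation of endpoints. Here, GI50 denotes the concentration required for 50% inhibition of growth.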 The source made the active and inactive calls. No stated cut-off is given here; in the data, active = GI50 up to about 1.1 µM and inactive = higher.

The assay deals with NCI-H322M. Kind of assay: NCI-60 cell line screen, 48 h.
For `CCOC(=O)Nc1sc2c(c1C#N)CCCC2`, the GI50 is inactive: > 100 µM.

For `COc1ccc2c(c1)c(=O)c1c(NCCCN(C)CCCNc3ccc4c(=O)n(CCN(C)C)c(=O)n5c6ccc(OC)cc6c(=O)c3c45)ccc3c(=O)n(CCN(C)C)c(=O)n2c31`, the GI50 is active: < 0.01 µM.

On to `CC(=O)c1c(C)n(C)c2c1nnc1ccccc12`, for which the GI50 was inactive: 43.1 µM.

Turning to `Cc1ccc(NC(=O)C(=O)C2C(=O)NC(=O)NC2=O)c(C)c1`, the GI50 is inactive: > 100 µM.

For `Brc1cc(C2OCCCO2)ccc1OCc1ccccc1`, the GI50 was inactive: 35.1 µM.

Regarding `O=c1c2c(c1=O)C1(SCCCS1)c1cc(Cl)ccc1O2`, the GI50 is inactive: > 100 µM.

As for `O=[N+]([O-])c1ccc2sc(/C=N/c3ccccn3)cc2c1`, the GI50 was inactive: > 100 µM.

With `COC(=O)c1c(O)ccc2c1c1c(n2CCc2ccc(OC)c(OC)c2)C(=O)c2ccccc2C1=O`, the GI50 was inactive: 15.5 µM.

On to `COc1ccc2c(c1)CC[C@@H]1C2CC[C@]2(C)C(=C=CP(=O)(O)O)CCC12` (stereo not given in full), for which the GI50 was inactive: > 100 µM.

Regarding `Cn1c(=O)c2c(nc(N)n2C2OC(CO)C(O)C2O)n(C)c1=O` (stereo not given), the GI50 was inactive: > 100 µM.

Turning to `CSCSCC(CO)NC(=O)/C=C\c1c(C)[nH]c(=O)[nH]c1=O` (stereo not given), the GI50 is inactive: 3.09 µM.

As to `CCOC(=O)C(C)(C)Oc1ccc2c(-c3ccc(Cl)cc3)c(-c3ccc(Cl)cc3)c(=O)oc2c1`, the GI50 was inactive: > 100 µM.

Consider `C/C=C1\CN(C(=O)OC(C)(C)C)C1C(=O)OC(C)(C)C` (stereo not given), for which the GI50 is inactive: > 100 µM.

On to `CCOC(=O)N1CCC2(CC1)C[C@@](C(C)=O)(c1ccccc1)C(C)O2` (stereo not given in full), for which the GI50 is inactive: > 100 µM.

Turning to `COc1ccc(OC(C)C(=O)O)c2c1CCCC2=O` (stereo not given), the GI50 was inactive: > 100 µM.

Turning to `O=CN1CCN(CC(O)CN2CCCCC2)CC1` (stereo not given), the GI50 is inactive: > 100 µM.

As for `CCOC(OC1=C(C#N)CCCC1)C(C)[Se]c1ccccc1` (stereo not given), the GI50 is inactive: > 100 µM.

Take `Cc1cc2c(C)cc(=O)[nH]c2cc1N`: the GI50 was inactive: > 100 µM.

`NC1CC(=O)c2cc(Cl)sc21` (stereo not given): the GI50 is inactive: > 100 µM.

`COc1ccccc1[S+]([O-])Nc1ccccc1` (stereo not given): the GI50 was inactive: > 100 µM.

As to `NNC(=O)CCC(=O)Nc1ccc(Cl)cc1Cl`, the GI50 is inactive: > 100 µM.

As to `O=C1CCC(Cl)=CC2CCCN12` (stereo not given), the GI50 is inactive: > 100 µM.

On to `CC(C)C1CC2C(=O)N(c3ccccc3)C(=O)C2c2[nH]c3ccccc3c21` (stereo not given), for which the GI50 is inactive: 66.2 µM.

With `S=c1oc(CCCCCCCCc2nn(CNc3ccccc3)c(=S)o2)nn1CNc1ccccc1`, the GI50 is inactive: > 100 µM.

For the compound `Cc1cccc(/N=N/C(=N\NC(=O)c2cc(Cl)ccc2O)c2ccc(N(CCC#N)CCC#N)cc2C)c1`, the GI50 is inactive: 23.8 µM.

For `C=CC(C)CCC(C/C=C(\C)CCC=C(C)C)C(=C)CCCC(C)C` (stereo not given), the GI50 is inactive: > 100 µM.

On to `O=C1C[C@@H](Sc2ccccc2)C2(OCCO2)C2ON3CCCC[C@H]3[C@H]12` (stereo not given in full), for which the GI50 is inactive: 14.3 µM.

For `COC(=O)c1nn2ccc3ccccc3c2c1C(=O)OC`, the GI50 was inactive: > 100 µM.

`NC1CCC(N(CC(=O)O)CC(=O)O)C(N(CC(=O)O)CC(=O)O)C1` (stereo not given): the GI50 is inactive: > 100 µM.

As to `Sc1nnc(-c2cccnc2)[nH]1`, the GI50 was inactive: > 100 µM.

In the case of `CC1(C)S[C@H](CN)N[C@H]1C(=O)OC(c1ccccc1)c1ccccc1`, the GI50 is inactive: 92.3 µM.

In the case of `Nc1nc2c(ncn2C2OC(CO)C(O)C2O)c(=O)o1` (stereo not given), the GI50 was inactive: > 100 µM.

Turning to `Cc1cc(OCC(O)CO)ccc1-c1ccccc1` (stereo not given), the GI50 was inactive: > 100 µM.

For `CN(C)P(=O)(Oc1occc1C(O)Cc1ccccc1)N(C)C` (stereo not given), the GI50 was inactive: > 100 µM.

Turning to `O=C(N/N=C1\CCc2ccccc2C1)N/N=C1\CCc2ccccc2C1`, the GI50 was inactive: > 10 µM.

Regarding `Cc1c2c(C(N)=O)nccc2c(C)c2c1c1ccccc1n2Cc1ccccc1`, the GI50 was inactive: 13.6 µM.

With `C=CCC(C(=O)O)c1ccccc1` (stereo not given), the GI50 is inactive: > 100 µM.

As to `O=C(C/N=C(\CN(c1ccccc1)c1ccccc1)Oc1ccc(Cl)cc1Cl)n1ccnc1`, the GI50 is inactive: > 100 µM.

For `C=CCOC(=O)[C@@H]1C[C@@H](OC(C)(C)C)CN1C(=O)[C@@H]1[C@H]2OC(C)(C)O[C@H]2CN1C(=O)OCC1c2ccccc2-c2ccccc21`, the GI50 was inactive: 18.2 µM.

In the case of `CN1CC[C@]2(c3cccc(O)c3)CC(=O)/C(=C/c3ccccc3)[C@@H]1C2.[O-][Cl+3]([O-])([O-])O`, the GI50 was inactive: 10.3 µM.

Take `COc1ccc(/C=C2\C[C@H]3[C@@H]4CC=C5C[C@@H](O)CC[C@]5(C)[C@H]4CC[C@]3(C)\C2=N\O)cc1`: the GI50 is inactive: 36.3 µM.

With `COc1cccc(Cc2cc(=O)c3ccc(C)nc3[nH]2)c1`, the GI50 was inactive: > 100 µM.

On to `COc1ccc2c(c1)CC1(O)COc3cc(OC)ccc3C1O2` (stereo not given), for which the GI50 was inactive: > 100 µM.

Turning to `O=C1OC(=O)C2C1C1(c3ccccc3)OC2(c2ccccc2)c2c(Br)c(Br)c(Br)c(Br)c21` (stereo not given), the GI50 was inactive: > 100 µM.

With `COC(=O)/C=C(C)/C=C/C1OC(C)OCC1O` (stereo not given), the GI50 is inactive: > 100 µM.

As for `Cc1csc(CP(=O)(OC(C)C)OC(C)C)n1`, the GI50 was inactive: > 100 µM.

In the case of `Cn1c(S)nnc1CNc1ccc(-c2nnc(S)n2C)cc1`, the GI50 is inactive: > 100 µM.

Consider `CC(=O)N(C(=O)CC(=O)NNCc1ccccc1Cl)c1ccc(Cl)cc1`, for which the GI50 was inactive: > 10 µM.

Regarding `COc1ccccc1C1(c2c(OC(C)C)c(=O)c2=O)SCCCS1`, the GI50 is inactive: > 100 µM.

For `Cc1ccc2c(c1)[nH]c(=S)n2C=C1C(=O)CC(C)(C)CC1=O`, the GI50 was inactive: > 100 µM.

For the compound `O=C1CSC(c2ccccc2O)N1c1ccc(-n2c(-c3ccccc3)nc3ccccc3c2=O)cc1` (stereo not given), the GI50 was inactive: 31 µM.

Turning to `COC(=O)[C@]1(c2cc3ccccc3n2S(=O)(=O)c2ccccc2)CC2CN(C(C)=O)C1CC2=O` (stereo not given in full), the GI50 is inactive: 3.79 µM.

Turning to `N#CCc1nc2cc(C(F)(F)F)ccc2s1`, the GI50 is inactive: > 100 µM.

As for `COC1(OC)CCCCC2c3cccc(OC(C)=O)c3C21OC(C)=O` (stereo not given), the GI50 was inactive: > 100 µM.

With `COc1nc(SC)nc2c1C(O)n1c(nc3ccccc31)S2` (stereo not given), the GI50 was inactive: 20.6 µM.

On to `C/C(=C1/CCCC2(N=NCC2c2ccccc2)C1=O)c1ccccc1` (stereo not given), for which the GI50 was inactive: 39 µM.

`O=C(CC(=O)c1ccccc1)C(=O)Nc1ccc(Cl)cc1`: the GI50 is inactive: > 100 µM.

On to `CCOC(=O)Cn1c(=O)c2nc(SC)sc2n(CC)c1=S`, for which the GI50 was inactive: > 100 µM.

On to `C=CC1=C(C)c2cc3[nH]c(cc4nc(cc5[nH]c(cc1n2)c(C)c5CCC(=O)N(CC)CC)C(CCC(=O)N(CC)CC)=C4C)c(C)c3C=C`, for which the GI50 is inactive: > 100 µM.

Consider `COc1ccc2nc(N/N=C/C(C)=N/Nc3cc(C)c4cc(OC)ccc4n3)cc(C)c2c1`, for which the GI50 was inactive: 24.3 µM.

`O=c1[nH]c(N/N=C\C(O)C(O)C(O)C(O)CO)nc2ccccc12` (stereo not given): the GI50 is inactive: > 100 µM.

As for `CC1N(O)C(c2ccccc2)C(c2ccccc2)=[N+]1[O-]` (stereo not given), the GI50 is inactive: > 100 µM.

In the case of `NNC(=O)c1cc(=O)[nH][nH]1`, the GI50 is inactive: > 100 µM.

Take `CC(C)(NC1=NCCO1)c1ccccc1`: the GI50 is inactive: > 100 µM.

Consider `COC(=O)Nc1nc2cc(S(=O)(=O)Nc3ccccn3)ccc2[nH]1`, for which the GI50 was inactive: 65.2 µM.

Regarding `CCOC(=O)/C(=C\c1c(C)[nH]c2ccccc12)P(=O)(OCC)OCC`, the GI50 was inactive: > 100 µM.

`Cc1ccc2c(c1)CC1(Cc3c(C)cccc3C1=O)C2=O` (stereo not given): the GI50 is inactive: > 100 µM.

As to `CC1=C(C)C(=O)C2=C(OCCO2)C1=O`, the GI50 was inactive: 17.7 µM.

For the compound `O=C1CC(NC(=O)C(F)(F)F)c2c(Br)sc(N3CCC(c4ccccc4)CC3)c21` (stereo not given), the GI50 was inactive: 18.8 µM.

In the case of `CC1OC(n2cc(C(F)(F)F)c(=O)[nH]c2=O)C=CC1=O` (stereo not given), the GI50 was inactive: 26.1 µM.

Turning to `CC1(C)CC(=O)c2c(-c3ccc(Cl)cc3)c(C#N)c(=S)n(C3OC(CO)C(O)C(O)C3O)c2C1` (stereo not given), the GI50 was inactive: 40.2 µM.

As for `Cn1c(=O)n(C2(C)CSC2)c2ccccc21`, the GI50 was inactive: > 100 µM.

In the case of `CC(Nc1ncc2c(n1)-c1ccccc1OC2)C(=O)O` (stereo not given), the GI50 is inactive: 38.2 µM.

As to `CCOC(=O)CC(=O)Nc1cccc2sc3ncccc3c(=O)c12`, the GI50 is inactive: 68.9 µM.

Take `O=C1NC2(CCCC2)C(=O)C12CCCC2`: the GI50 is inactive: > 100 µM.

Turning to `COc1cc(OC)c2c(=O)c3c([N+](=O)[O-])cccc3n(C)c2c1`, the GI50 is inactive: > 100 µM.

Turning to `COc1c2c(cc3c1C(=O)c1c(O)cccc1C3=O)CC(O)CC2` (stereo not given), the GI50 was inactive: 39.5 µM.

Regarding `O=C(O)/C(=C\c1ccccc1Cl)S(=O)(=O)c1ccccc1`, the GI50 was inactive: > 100 µM.

Consider `O=C(CC(=O)N(C(=O)c1ccccc1)c1ccc(Cl)cc1)N/N=C\c1ccccc1O`, for which the GI50 is inactive: > 100 µM.

Take `CSc1nc(NC2OC(COC(C)=O)C(OC(C)=O)C(OC(C)=O)C2OC(C)=O)c(/N=C/C=N/c2c(NC3OC(COC(C)=O)C(OC(C)=O)C(OC(C)=O)C3OC(C)=O)nc(SC)[nH]c2=O)c(=O)[nH]1` (stereo not given): the GI50 is inactive: > 100 µM.

Turning to `CCOCc1cc(=O)c2c(OC)cc3c(c2o1)CCC(C)(C)O3`, the GI50 is inactive: > 100 µM.

Turning to `C=CCOC1OC(CS(=O)(=O)O)C(OC(C)=O)C(OC(C)=O)C1OC(C)=O` (stereo not given), the GI50 is inactive: > 100 µM.

Regarding `Cc1ccc(N(Cc2ccccc2)Cc2ccccc2)cc1`, the GI50 was inactive: > 100 µM.

For `CCCCCCCCCCCCCC[C@@H](O)[C@H]1CC[C@H]([C@H]2CC[C@H]([C@H](O)CCCCCC[C@@H](O)CC3=C[C@H](C)OC3=O)O2)O1`, the GI50 was inactive: > 25 µM.

For the compound `Oc1[nH]c(Nc2cccc(Cl)c2)nc2ncnc1-2`, the GI50 is inactive: 84.5 µM.
